{"source": "PubChem BioAssay AID686979", "about": "(National Center for Advancing Translational Sciences (NCATS), 2013)", "note": "The whole screen tested about 420,000 compounds, of which about 50,000 (12%) were called active. This list was built around the results that the source calls inconclusive (neither active nor inactive); the mix of calls is not that of the screen. Calls come from the whole dose curve; as a rule, active = well fitted inhibition curve with a large enough effect; inconclusive = small, poorly fitted or top-dose-only effect; inactive = flat fitted curve, though single readings scatter. Potencies of inconclusive entries are left out as doubtful fits. % is set by controls: 0 for no effect and ±100 for the full control effect; potency is the fitted concentration of half-maximal effect; tags give direction and shape of the fitted curve.", "data": [{"experiment": "qHTS for Inhibitors of human tyrosyl-DNA phosphodiesterase 1 (TDP1): qHTS in cells in presence of CPT; note: nearly all actives have a fitted effect of over 55% in size", "conditions": "chicken DT40 Tdp1-/-;hTDP1 cells + 20 nM CPT, ATP luminescence, 48 h; activity change, negative = growth inhibition: at 46.2 µM (top of the series)", "how_it_was_run": "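Cell growth measured by CellTiter-Glo luminescence after a minimum 48 h, 37 C compound exposure with 20 nM CPT in Tdp1-knockout DT40 cells stably expressing hTDP1, seeded 400/well; qHTS titration format.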", "values": [{"smiles": "Clc1nc2ccccc2cc1-c1nnn(-c2ccccc2Br)n1", "Potency": "inconclusive [inhibitor, single point]"}, {"smiles": "COC(=O)[C@H](CCSC)NC(=O)Cn1cnc2c(OCc3ccccc3)ncnc21", "activity change, negative = growth inhibition": "inactive: -26.9%"}, {"smiles": "COc1ccc(N2CCN(C(=O)C(C)n3c(=O)cc(C(F)(F)F)c4c(C)nn(C)c43)CC2)cc1", "note": "(stereo not given)", "Potency": "active: 11.6 µM"}, {"smiles": "CCOc1ccc(NC(=O)c2cc(C)nc3c2c(C)nn3-c2cccc(F)c2)cc1", "activity change, negative = growth inhibition": "inactive: 1.54%"}, {"smiles": "O=C(Cc1ccc(-n2cccc2)cc1)N1CCN(c2ccccc2F)CC1", "Potency": "inconclusive [inhibitor, single point]"}, {"smiles": "COc1ccc(-c2cc(C)no2)cc1S(=O)(=O)NC1CCC(C)CC1", "note": "(stereo not given)", "Potency": "inconclusive [inhibitor, single point]"}, {"smiles": "Cc1cccc(N2CCN(C(=O)Cn3ncc4c([nH]c5ccccc54)c3=O)CC2C)c1", "note": "(stereo not given)", "Potency": "inconclusive [inhibitor, single point]"}, {"smiles": "COCCN(Cc1cc2cc(C)cc(C)c2nc1Cl)C(=O)Nc1ccccc1", "Potency": "active: 4.61 µM"}, {"smiles": "COc1cc(/C=N/NC(=O)CCN2CCCCC2)ccc1O", "activity change, negative = growth inhibition": "inactive: 14.4%"}, {"smiles": "O=C(CCc1nc(-c2ccccc2F)no1)Nc1cccnc1", "Potency": "inconclusive [inhibitor, single point]"}, {"smiles": "O=C(Cn1cnc2c(cnn2-c2ccc(F)cc2)c1=O)OCc1ccccc1", "activity change, negative = growth inhibition": "inactive: 2.15%"}, {"smiles": "Cc1cccc(CC(=O)NCCS(=O)(=O)N2CCN(c3ccccc3)CC2)c1", "Potency": "inconclusive [inhibitor, partial curve, poor fit]"}, {"smiles": "Cc1ccc(NC(=O)C2CCCN2S(=O)(=O)c2ccc3c(c2)C(C)(C)C(=O)N3C)cc1", "note": "(stereo not given)", "Potency": "inconclusive [inhibitor, single point]"}, {"smiles": "COc1ccc(-c2cc(OC)c3c(C)oc(C)c3c(=O)c2)cc1OC", "Potency": "inconclusive [inhibitor, partial curve]"}, {"smiles": "Cc1ccccc1-n1c(SCc2ccccn2)nc2n[nH]c(C)c2c1=N", "Potency": "active: 20.6 µM"}, {"smiles": "CC(=Nc1ccccc1)C1=C(O)C(Cc2cccc(F)c2)NC1=O", "note": "(stereo not given)", "Potency": "active: 0.0058 µM"}, {"smiles": "COC(=O)c1c(NC(NC(=O)C(C)(C)C)C(Cl)(Cl)Cl)sc2c1CCC2", "note": "(stereo not given)", "Potency": "inconclusive [inhibitor, single point]"}, {"smiles": "Cc1cc(C)n(-c2ccc(S(=O)(=O)N3CCCC3)cc2[N+](=O)[O-])n1", "activity change, negative = growth inhibition": "inactive: 1.11%"}, {"smiles": "COc1cc(Cl)ccc1OCc1cc(C(=O)N[C@H]2CCCCNC2=O)no1", "activity change, negative = growth inhibition": "inactive: -11.2%"}, {"smiles": "O=C(Cc1cccc(NC(=O)C2CCCN(C(=O)CCc3ccccc3)C2)c1)Nc1ccc(C(=O)N2CCCCC2)cc1", "note": "(stereo not given)", "Potency": "active: 29.1 µM"}, {"smiles": "COc1ccccc1NC(=O)CSc1nc2ccccc2cc1Cc1ccccc1", "Potency": "inconclusive [inhibitor, single point]"}, {"smiles": "CNC(=O)c1sc(SC)cc1-c1ccc(Cl)cc1", "Potency": "inconclusive [inhibitor, single point]"}, {"smiles": "CC1(C(=O)NC2CCCCC2)Cc2ccccc2C(=O)N1Cc1ccc(F)cc1", "note": "(stereo not given)", "Potency": "inconclusive [inhibitor, single point]"}, {"smiles": "Cc1ccc(C)c(N=Cc2ccc(-c3ccc([N+](=O)[O-])cc3)o2)c1", "Potency": "inconclusive [inhibitor, single point]"}, {"smiles": "Cc1ccc(-n2nnnc2SCC(=O)NNC(=O)c2ccco2)cc1C", "Potency": "inconclusive [inhibitor, single point]"}, {"smiles": "COc1cccc2sc(NN)nc12", "Potency": "inconclusive [inhibitor, single point]"}, {"smiles": "COC(=O)c1cc2ccsc2n1Cc1nc(-c2ccc(OC)cc2)oc1C", "Potency": "inconclusive [inhibitor, single point]"}, {"smiles": "O=C(c1cccc(F)c1)N1CCN(c2ccc([N+](=O)[O-])c3cccnc23)CC1", "Potency": "inconclusive [inhibitor, partial curve]"}, {"smiles": "COC(=O)c1ccccc1NC(=O)COC(=O)c1ccccc1N=Nc1ccc(N(C)C)cc1", "Potency": "active: 16.4 µM"}, {"smiles": "O=C(c1ccccc1F)N1CCN(S(=O)(=O)c2ccc(Br)cc2)CC1", "activity change, negative = growth inhibition": "inactive: -17.3%"}, {"smiles": "COc1ccccc1CNC(=O)COC(=O)c1c(C)nn(-c2ccccc2)c1Cl", "Potency": "inconclusive [inhibitor, single point]"}, {"smiles": "CCOc1ccc(-n2ccnc2SCC(=O)Nc2ccc3c(c2)OCO3)cc1", "activity change, negative = growth inhibition": "inactive: 3.59%"}, {"smiles": "CCOc1ccc2nc(N(CCN(CC)CC)C(=O)/C=C/c3cccs3)sc2c1", "Potency": "inconclusive [inhibitor, single point]"}, {"smiles": "CCN(CC)S(=O)(=O)c1ccc(NC(=O)C2c3ccccc3Oc3ccccc32)cc1", "Potency": "active: 23.1 µM"}, {"smiles": "CCc1ccccc1NC1=CC(=O)CC(C)(C)C1", "activity change, negative = growth inhibition": "inactive: 4.12%"}, {"smiles": "O=C(NC1CCCCC1)c1cc2nc(-c3ccco3)cc(C(F)(F)F)n2n1", "Potency": "active: 20.6 µM"}, {"smiles": "COc1ccc(-c2cccc(-c3nc4ccc(Cl)cn4c3NC3CCCCC3)c2)cc1", "Potency": "active: 18.4 µM"}, {"smiles": "C[C@H]1C=C2C=C[C@H](C)[C@H](CC[C@@H]3C[C@@H](O)CC(=O)O3)[C@H]2[C@@H](OC(=O)[C@@H](C)CCO)C1", "Potency": "active: 26.6 µM"}, {"smiles": "COC(=O)c1cccc(NC(=O)Nc2ccccc2OC)c1", "Potency": "inconclusive [inhibitor, single point]"}, {"smiles": "CCOc1ccc(N(CC)C(=O)COc2cc(=O)n(CC)c3ccccc23)cc1", "Potency": "inconclusive [inhibitor, single point]"}, {"smiles": "Cc1ccc(CNC(=O)CN2CCN(Cc3ccc(Cl)cc3)C2=O)cc1", "Potency": "inconclusive [inhibitor, single point]"}, {"smiles": "CCCCCNC(=O)C(c1ccnc2ccccc12)n1c(=O)c(-c2cc3ccccc3[nH]2)nc2ccccc21", "note": "(stereo not given)", "Potency": "inconclusive [inhibitor, single point]"}, {"smiles": "CO/N=C(/C(=O)N[C@H]1C(=O)N2C(C(=O)O)=C(COC(C)=O)CSC12)c1csc(N)n1", "note": "(stereo not given in full)", "activity change, negative = growth inhibition": "inactive: -2.63%"}, {"smiles": "CCC(C(=O)OCC(=O)Nc1ccccc1-c1ccccc1)c1ccccc1", "note": "(stereo not given)", "Potency": "inconclusive [inhibitor, single point]"}, {"smiles": "CC1CCc2sc(C(=O)NC(C)C3CCCO3)cc2C1", "note": "(stereo not given)", "Potency": "inconclusive [inhibitor, partial curve, poor fit]"}]}]}
